From the supplement of paper PMC12350171

Tests used:
[1] = test system: Com20 synthetic gut community; experiment: Com20 community biomass OD578 after 24 h drug treatment relative to untreated (fraction of untreated control); higher = more community growth
[2] = test system: Salmonella enterica Typhimurium in Com20; experiment: S. Typhimurium luminescence in drug-pretreated Com20 relative to untreated Com20 (fold of untreated control); higher = more pathogen expansion
[3] = test system: Shigella flexneri 24570 (community: Com20); experiment: pathogen growth (luminescence or CFU) in drug-pretreated community relative to untreated community (fold of untreated control); higher = more pathogen expansion
[4] = test system: Yersinia enterocolitica WA-314 (community: Com20); experiment: as above
[5] = test system: Yersinia pseudotuberculosis YPIII (community: Com20); experiment: as above
[6] = test system: Escherichia coli CFT073 (community: Com20); experiment: as above
[7] = test system: Klebsiella pneumoniae MKP103 (community: Com20); experiment: as above
[8] = test system: Salmonella enterica Typhimurium (community: Com21 (Com20 + E. coli ED1a)); experiment: as above
[9] = test system: Vibrio cholerae A1552 (community: Com20); experiment: as above

CC(C)(C)c1ccc(C(O)CCCN2CCC(C(O)(c3ccccc3)c3ccccc3)CC2)cc1 (centres undefined) [Terfenadine]
Conditions	Com20 community biomass OD578, [1]	S. Typhimurium luminescence, [2]	pathogen growth, [3]	pathogen growth, [4]	pathogen growth, [5]	pathogen growth, [6]	pathogen growth, [7]	pathogen growth, [8]	pathogen growth, [9]
drug pretreatment concentration 10 µM	0.977	1.03	1.03	1.06	0.829	1.52	1.39	0.875	1.06
drug pretreatment concentration 20 µM	0.924	0.646	0.927	1.25	0.799	1.41	1.47	0.833	0.794
drug pretreatment concentration 40 µM	0.746	1.03	2	2.18	2.52	1.6	1.91	1.54	1.26
drug pretreatment concentration 80 µM	0.658	1.53	2.94	3.81	4.15	1.51	2.5	3.3	1.31
drug pretreatment concentration 100 µM	–	–	10.3	7.87	9.38	7.14	6.03	–	5.4
drug pretreatment concentration 160 µM	0.03	–	–	–	–	–	–	6.7	–

COc1cc(C(=O)NS(=O)(=O)c2ccccc2C)ccc1Cc1cn(C)c2ccc(NC(=O)OC3CCCC3)cc12 [Zafirlukast]
Conditions	Com20 community biomass OD578, [1]	S. Typhimurium luminescence, [2]	pathogen growth, [3]	pathogen growth, [4]	pathogen growth, [5]	pathogen growth, [6]	pathogen growth, [7]	pathogen growth, [8]	pathogen growth, [9]
drug pretreatment concentration 10 µM	1.03	0.606	1.33	0.661	0.247	2.82	1.08	0.533	0.788
drug pretreatment concentration 20 µM	1.02	0.455	1.28	0.905	0.225	2.49	1.76	1.61	0.88
drug pretreatment concentration 40 µM	0.935	0.472	0.381	0.145	0.065	1.92	0.902	1.28	1.01
drug pretreatment concentration 80 µM	0.848	0.431	0.486	0.155	0.159	1.8	1.05	1.24	0.779
drug pretreatment concentration 100 µM	–	–	0.322	0.23	0.136	1.79	0.891	–	1.04
drug pretreatment concentration 160 µM	0.887	0.506	–	–	–	–	–	1.53	–

Synthetic gut communities (20 or 21 species) grown anaerobically with drug for 24 h at the dose given, then challenged with the named pathogen. Pathogen growth (luminescence, or colony counts for V. cholerae) or community OD578 as fold of untreated communities, mean of three; above 1 = more growth. No active / inactive call.
